# Test results: article PMC4336329 (PLoS ONE, 2015)
# The campaign covered roughly 310,000 compounds. About 14,000 (4.5%) showed an effect of 50% or more. Effects have a minus sign here. The list shows a part of the results.
# Biological target: human ether-à-go-go-related gene (hERG) potassium channel (human, UniProt Q12809)
# Experiment: primary screen, population patch clamp on CHO cells stably expressing hERG
# 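Also: peak tail current of the secondary pulse compared with the same well before compound.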
# Chain of human ether-à-go-go-related gene (hERG) potassium channel (Q12809 whole entry, looked up): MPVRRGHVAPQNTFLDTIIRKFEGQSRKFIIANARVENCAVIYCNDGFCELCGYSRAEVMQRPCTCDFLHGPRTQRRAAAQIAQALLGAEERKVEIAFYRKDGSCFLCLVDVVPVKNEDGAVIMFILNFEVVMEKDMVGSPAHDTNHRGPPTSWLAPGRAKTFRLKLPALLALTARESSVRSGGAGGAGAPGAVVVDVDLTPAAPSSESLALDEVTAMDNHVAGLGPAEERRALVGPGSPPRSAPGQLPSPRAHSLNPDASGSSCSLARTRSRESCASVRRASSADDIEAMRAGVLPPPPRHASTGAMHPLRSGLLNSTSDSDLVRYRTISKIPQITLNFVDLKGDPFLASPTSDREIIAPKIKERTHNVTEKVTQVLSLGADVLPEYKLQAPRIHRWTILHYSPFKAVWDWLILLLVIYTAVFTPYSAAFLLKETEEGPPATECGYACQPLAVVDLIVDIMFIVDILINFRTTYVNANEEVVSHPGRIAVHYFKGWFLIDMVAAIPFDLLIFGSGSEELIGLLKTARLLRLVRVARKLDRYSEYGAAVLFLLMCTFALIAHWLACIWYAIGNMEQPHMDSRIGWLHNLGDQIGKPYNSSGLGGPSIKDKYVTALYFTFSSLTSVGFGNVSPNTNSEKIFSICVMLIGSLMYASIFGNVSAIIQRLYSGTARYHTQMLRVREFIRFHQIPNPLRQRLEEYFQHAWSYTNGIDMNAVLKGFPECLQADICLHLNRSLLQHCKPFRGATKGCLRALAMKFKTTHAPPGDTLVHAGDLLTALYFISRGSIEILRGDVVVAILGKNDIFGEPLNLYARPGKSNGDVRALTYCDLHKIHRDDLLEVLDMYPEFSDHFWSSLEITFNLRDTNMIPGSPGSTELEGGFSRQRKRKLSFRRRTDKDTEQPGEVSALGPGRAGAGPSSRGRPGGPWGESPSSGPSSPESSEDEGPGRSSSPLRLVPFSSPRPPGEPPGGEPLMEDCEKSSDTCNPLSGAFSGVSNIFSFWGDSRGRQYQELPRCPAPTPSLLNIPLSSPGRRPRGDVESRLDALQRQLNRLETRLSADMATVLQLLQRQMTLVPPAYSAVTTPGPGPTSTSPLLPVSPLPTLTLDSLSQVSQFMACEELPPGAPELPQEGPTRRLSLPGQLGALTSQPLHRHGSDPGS
row,Compound,"hERG current change (%, negative = inhibition) at 10uM"
1,CCOC(=O)c1oc2ccccc2c1CN1CCN(C(=O)c2ccccc2)CC1,-41.7%
2,COc1ccc(S(=O)(=O)N2CCN(C(=O)CN3C(=O)NC(C)(c4ccc5ccccc5c4)C3=O)CC2)cc1 (centres unmarked),-16%
3,O=Nc1c(O)c2ccccc2c2ccccc12,4.12%
4,Cc1nc2c(-c3ccc(F)cc3)cnn2c(N)c1-c1ccc(F)cc1,23.3%
5,CC(=O)N/N=C(\C)c1ccc(Br)cc1Br,31.3%
6,COc1ccc(NC(=O)c2cccc(NC(=O)c3ccco3)c2)c(OC)c1,-1.61%
7,CC(C)c1cc(-c2cc(C(=O)NCc3ccccc3)on2)nc(NCC2CC2)n1,9.95%
8,Cn1nc([N+](=O)[O-])nc1N1CCOCC1,23.7%
9,CCOc1ccc(N(CC(=O)NC2CCCC2)C(=O)CCC(=O)Nc2ccccn2)cc1,-56.2%
10,CC1=NNC(=O)C1CCC(=O)N/N=C(\C)c1ccc(Cl)cc1 (centres unmarked),-3.31%
11,O=C(Nc1ccccc1C(F)(F)F)C1CCCC1,14.4%
12,N/C(CC(=O)Nc1cccc(C(F)(F)F)c1)=N/O,-0.114%
13,COc1ccc(-c2csc(/C(C#N)=C\c3cccc([N+](=O)[O-])c3)n2)cc1,24%
14,COc1ccc(Br)cc1/C=C/C(=O)Nc1ccc2ccccc2c1,17.8%
15,CN(Cc1nc(C(c2ccccc2)c2ccccc2)no1)CC1COCCO1 (centres unmarked),-10.4%
16,COC(=O)CSC1=C(C#N)C(c2ccccc2)CC(=O)N1 (centres unmarked),19.9%
17,CCC(C)NC(=O)c1c(-c2cc(Cl)c(OC)c(Cl)c2)noc1C (centres unmarked),-8.28%
18,CCOC(=O)c1cncn1[C@@H](C)c1ccccc1,-22%
19,Cc1cccc(Nc2ccccc2C(=O)NCc2ccco2)c1C,1.25%
20,N#CC(=C1CCCC1)c1nc(-c2ccc(Cl)cc2)cs1,13.5%
21,CCN(CC)c1ccc(S(=O)(=O)N2CCOCC2)cc1NC(=O)C1CC1,-11.4%
22,O=C(COC(=O)c1ccc2c(c1)OCCO2)Nc1cc(S(=O)(=O)N2CCOCC2)ccc1Cl,13.9%
23,CC(=O)c1cccc(S(=O)(=O)N2CCCC(c3nc4c(nnn4Cc4cccc(Cl)c4)c(=O)[nH]3)C2)c1 (centres unmarked),5.47%

row,Compound,"hERG current change (%, negative = inhibition) at 10uM"
1,CCN(Cc1ccccc1)S(=O)(=O)c1ccc(C(=O)Nc2nnc(-c3ccccc3OC)o2)cc1,15%
2,Cc1ccc(-n2nc3ccc(NC(=O)/C=C/c4ccco4)cc3n2)cc1C,-2.2%
3,Cc1nc2scc(C)n2c(=O)c1S(=O)(=O)Nc1ccc(N2CCN(S(C)(=O)=O)CC2)cc1,-3.78%
4,COc1ccc(C(=O)CC(=O)C(=O)Nc2c(C)cccc2C)cc1,-7.64%
5,O=C(Nc1nnc(SCc2ccccn2)s1)C1CC(=O)N(c2ccccc2)C1 (centres unmarked),-6%
6,CN(C)C(CNc1ccc([N+](=O)[O-])cc1C#N)c1ccccc1 (centres unmarked),-41.5%
7,O=C(CSc1ncnc2ccccc12)Nc1cccc(S(=O)(=O)N2CCCC2)c1,0.329%
8,Cc1ccc2cc(C(c3nnnn3Cc3ccccc3)N3CCc4ccccc43)c(=O)[nH]c2c1C (centres unmarked),-9.39%
9,CCC(=O)Nc1cccc(-c2csc(-c3ccccc3)n2)c1,-7.58%
10,O=C(CNC(=O)Cc1ccccc1)N=Nc1c(O)[nH]c2ccc(Br)cc12,24.7%
11,CCOP(=O)(c1ccccc1)c1nc(-c2ccccc2Cl)oc1N1CCCCC1 (centres unmarked),-11.4%
12,Cc1cc(C)n(-c2nnc(N3CCN(c4ccc(F)cc4)CC3)nn2)n1,3.33%
13,Nc1cc(Cl)ccc1C(=O)OCC(=O)N1CCCC1,2.73%
14,C=CCn1c(SCC(=O)C23CC4CC(CC(C4)C2)C3)nc(O)cc1=O,10.5%
15,Cc1ccccc1S(=O)(=O)NC1OC(=O)C(Oc2ccccc2)=C1Br (centres unmarked),1.3%
16,CC(C)OC(=O)CSc1nnc(-c2cnccn2)n1Cc1ccco1,-16%
17,Cc1ccc(NNc2c(C)nc3ccccc3nc2=O)cc1,16%
18,CCC(=O)c1ccc(OCc2ccc(C(=O)OC)cc2)cc1,-0.709%
19,CC(OC(=O)Cn1[nH]c(=O)c2ccccc2c1=O)C(=O)Nc1ccc(F)cc1Cl (centres unmarked),12.8%
20,COc1ccccc1NC(=O)CC(c1ccc(F)cc1)c1ccco1 (centres unmarked),-19.4%
21,Cc1ccc(NC2=C(NC(=O)c3ccccc3)C(=O)c3ccccc3C2=O)cc1Cl,-15.7%
22,CC(=O)Oc1ccc(C(=O)Nc2ccc(S(=O)(=O)N3CCOCC3)cc2)cc1,11.9%
23,O=C(NCc1cccs1)Nc1cccc(Cl)c1,6.97%

row,Compound,"hERG current change (%, negative = inhibition) at 10uM"
1,O=C1CNC(=O)N1c1ccc(Cl)cc1,17%
2,Cc1ccc(-c2nc(C#N)c(N3CCC(C(N)=O)CC3)o2)cc1,-23.7%
3,COc1ccc(C(=O)CNc2cccc(F)c2)cc1,19.4%
4,Fc1ccc(NC(=S)N2CCCCC2)cc1,12%
5,NS(=O)(=O)c1ccc(CNC(=O)c2ccc3c(=O)n4c(nc3c2)CCC4)cc1,13.9%
6,CN(C)c1nc(OCCOC(=O)COc2ccc(Cl)cc2Cl)nc(N(C)C)n1,-0.207%
7,COC(=O)C(C(=O)Nc1ccc(OC)cc1)C1CCCCCC1 (centres unmarked),0.653%
8,CCCCn1nnc(NC(=S)NC(=O)c2ccc(OCC)c([N+](=O)[O-])c2)n1,-44.8%
9,CCOc1ccc2nc(SCC(=O)N3CCCCCC3)c(C#N)cc2c1,0.675%
10,CCOC(=O)C1(Cc2ccccc2)CCN(Cc2cccc3nccnc23)CC1,-59.9%
11,Nc1c(-c2cccs2)cnc2c(-c3ccc(F)cc3)cnn12,12.5%
12,CC(C)c1ccc(NC(=O)C2C3C=CC4(CN(Cc5cccnc5)C(=O)C24)O3)cc1 (centres unmarked),9.2%
13,Cc1ccc(NC(=O)Cn2nc([N+](=O)[O-])c(Br)c2C)cc1C,6.58%
14,Cn1nc(C(F)(F)F)c(/C=N/OC(=O)c2ccccc2Cl)c1SCc1ccccc1Cl,-5.41%
15,CC(=O)c1ccc(-c2ccc(C(=O)Nc3nc(C)c(C(C)=O)s3)o2)cc1,-1.79%
16,CN(CC(=O)Nc1cccc([N+](=O)[O-])c1)S(=O)(=O)c1ccccc1,-51.9%
17,Cc1ccc(S(=O)(=O)Nc2ccc(C(=O)Nc3ccncc3)cc2)cc1,18.5%
18,CCCOC(=O)CCCCCCCCC(O)CN1CCCCC1.Cl (centres unmarked),-30%
19,O=c1c2ccccc2c(C=NCCCN2CCOCC2)c(O)n1Cc1ccccc1,-47.7%
20,COc1ccc(C(=O)NC(C)C2CC3CCC2C3)cc1 (centres unmarked),2.42%
21,COC(=O)c1cc2ccccc2c(=O)s1,-4.28%
22,COc1ccc(S(=O)(=O)N2CCCCC2)cc1NS(=O)(=O)c1cc(Cl)ccc1Cl,-11.7%
23,O=C(Nc1ccc(Cl)cc1)c1csc(-c2ccncc2)n1,-38.6%

row,Compound,"hERG current change (%, negative = inhibition) at 10uM"
1,O=C(CSCc1ccccc1)NCCc1ccc(F)cc1,-1.11%
2,COC(=O)c1cc(S(=O)(=O)Nc2ccc(C)cn2)c[nH]1,15.4%
3,O=C(CCc1nc(-c2ccccn2)no1)NCc1ccc2c(c1)OCO2,8.83%
4,CN(C)c1ccc(C(=O)c2ccccc2)cc1,-1.72%
5,c1ccc(-n2cnnc2SCc2nc3ccccc3s2)cc1,5.25%
6,COc1ccc(CN(C(=O)Cn2nnc(-c3ccc(C)o3)n2)C(C(=O)NCC2CCCO2)c2ccco2)cc1 (centres unmarked),-0.424%
7,CC(=O)Nc1ccc(N2N=C(C)C(N=Nc3ccccc3)C2=O)cc1 (centres unmarked),-8.98%
8,Cn1cccc1Cc1nnc(SCC(N)=O)n1-c1ccc(F)cc1,-1.46%
9,O=C(N/N=C/c1cccc([N+](=O)[O-])c1)c1ccc(Br)cc1,10.1%
10,CCOC(=O)c1cnc2c(C#N)c(C)nn2c1C,1.96%
11,O=C(O)c1cccc(N=Nc2c(O)[nH]c(=O)[nH]c2=O)c1,-1.03%
12,NNC(=O)CSCc1nc(-c2ccc(Cl)cc2)cs1,7.86%
13,COc1ccc(NC(=O)COC(=O)CN2C(=O)C3CCCCC3C2=O)cc1OC (centres unmarked),11.1%
14,COc1ccccc1Nc1nc2nonc2[nH]c1=O,30.2%
15,COc1ccccc1/C=C/C=N/NC(=O)CCC1C(=O)NN=C1C (centres unmarked),10.9%
16,CCN1CCCC1CNC(=O)CSc1cc(=O)n(C)c2cc(Cl)ccc12 (centres unmarked),-32.7%
17,CC1CCN(c2nnc(-c3ccccc3)c3ccccc23)CC1,-28.7%
18,COc1ccc(CC(=O)NC(c2ccccc2)c2ccccc2)cc1S(=O)(=O)N1CCOCC1,-6.09%
19,COc1ccc(C(=O)NN2CCOCC2)cc1[N+](=O)[O-],12.9%
20,COc1cc(CNC2CCCc3ccccc32)cc(OC)c1OC.O=C(O)C(=O)O (centres unmarked),-13.9%
